Results from the supplement of paper PMC10338343.
± gives the standard deviation. Only a part is listed here, and it is no random draw.

Each sequence was assayed on MIWI (PIWIL1) piRISC loaded with L1MC piRNA (30 nt) (assay: pre-steady-state target cleavage rate (min^-1); MIWI and MILI are mouse PIWI proteins and EfPiwi is from a freshwater sponge; tags in brackets are library labels; higher = faster piRNA-guided slicing of the target). Conditions: guide: L1MC piRNA 5'p-UAACUAAAUACUAUGCAAGCUGUAGGUCCU; auxiliary factor: 500 nM mouse GTSF1.
Procedure, shortened: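 The pre-steady-state cleavage rate was obtained by Cleave-'n-Seq with a burst-and-steady-state fit. A transcribed, DNA-blocked target RNA library (0.1 nM) was mixed with 1 nM active affinity-purified piRISC carrying one synthetic guide, with or without 500 nM GTSF1 partner protein, in HEPES–potassium acetate buffer at 33 °C for 0–8 or 0–960 min. Uncleaved targets were sequenced and normalised to depth and to weakly complementary targets, with three trials pooled and k3 capped at 0.0001 min^-1.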

Sequence	pre-steady-state target cleavage rate
UCCUGCUUGUGCUUGCAUAGUAUUUAGUAA	0.133 ± 0.019
UCCUGGAACAGCUACCAUAGUAUUUAGUUA	0.188 ± 0.015
UCCUGGAUCAGCAUGCAUACUAUUUAGUUA	0.247 ± 0.017
UCCACAUACAGCUUGCAUAGUAUUUAGUUA	1.24 ± 0.062
UCCUCCUACAGCUUGCAUAGAAUUAAGUUA	0.264 ± 0.038
UCGACCUUGAGCUUGCAUAGUAUUUAGUAA	0.727 ± 0.074
AGGACCUACAGGAUGCAUAGUAUUUAGUAA	0.783 ± 0.079
UCCUCCUACAGCUUGCAAAGUAUUUUGUUA	0.548 ± 0.029
UCCUGGAUGUCGAACCAUAGUAUUAUCAAA [g7:g15:cont:t1A]	< 0.0001
UCGACCUACAGCUUGCAUUGUAUUUAGAAA	0.188 ± 0.022
UCCUCCUACAGCUUGCAUAGUAUUUAGUUU [g2:g26:cont:t1U]	1.29 ± 0.04
UCCUGGUACAGGUUGCAUAGUAAUUAGUUA	0.745 ± 0.12
UCCACCUACAGCUUGCAUAGUAAUUACUUA	0.23 ± 0.035
AGGUCCUACAGCUUGCAUAGUAUUUUCAAA	0.406 ± 0.066
UCCUGGAUGUGCUUGCAUAGUAUUUACAUA	0.08 ± 0.017
UCCACCUACAGCUUGCAAAGUAUUUAGUAA	0.453 ± 0.052

Same assay, conditions: guide: L1MC piRNA 5'p-UAACUAAAUACUAUGCAAGCUGUAGGUCCU; auxiliary factor: none (no GTSF1)

Sequence	pre-steady-state target cleavage rate
UGGACCUACAGCUUGCAUUCUAUUUAGUAA	0.00462 ± 0.0023
AGGACCUACAGCAUGCUUAGUAUUUAGUUA	0.0155 ± 0.0029
UCCUGGUUCAGCUUGCAUAGUAAUUAGUUA	0.0363 ± 0.0082
UCGACCAAGAGCUUGCAUAGUAUUUAGUUA	0.0547 ± 0.011
UCCACCUACACCUUGCAUAGUAUUUAGUAA	0.0267 ± 0.0063
UCCUGGUACAGCUUGCAUAGUUUUUACUUA	0.00569 ± 0.0026
UCCUGGAUCAGCAUGCAUAGUUUUUAGUUA	0.0123 ± 0.003
UCCUGGAUCAGCUUGAAUAGUAUUUAGUUA	0.0225 ± 0.0059
UCCUGGAACACCUUGCAUAGUAUUUACUUA	0.00856 ± 0.0028
UCCUGGAUCUCGUUGCAUAGUAUUUACAAA	0.00312 ± 0.0027
UGGACCUACUGCUUGCAUAGUAUAUAGUUA	0.0265 ± 0.006
UGGACGAUCAGCUUGCAUAGUAUUUAGAAA	0.0141 ± 0.0042
UCCUCCUACAGCUUGCAUACUAUUUUGUUA	0.0127 ± 0.0026
UCCUGGUACAGCUAGCAUAGUAUUUAGAUA	0.00468 ± 0.0026
UCCUGGAUCAGCUGUGCAUAGUAUUUAGUUA	0.0209 ± 0.0046
UCCUGCUACAGCUUGCAAUGUAUUUAGUAA	0.00418 ± 0.0024
AGCACCUACAGCUUGCAUAGUAUAUAGUUA	0.0169 ± 0.0063
UCCUCCUACUGCUUGCAAAGUAUUUAGUUA	0.0288 ± 0.0055
UCGUCCUACAGCUUGGAUAGUAUUUAGUUA	0.0586 ± 0.0084
UCCUGCUAGAGCUAGCAUAGUAUUUAGUUA	0.00801 ± 0.0027

Sequence	pre-steady-state target cleavage rate
UGCACCUACAGCUUGCAUAGAAUUUAGUUA	0.0199 ± 0.0054
UCCUGCUUGAGCUUGCAUAGUAUUUUCAAA	0.00249 ± 0.0023
UGGACGUACAGCUUGCAUAGUAUUUAGUAA	0.0568 ± 0.011
AGGACCUACAGCUUGCUUAGUAUUUAGAUA	0.019 ± 0.005
UCCUGCUUGUGCUUGCAUAGUAUUUAGUAA	0.0144 ± 0.0036
UCCUGGAACAGCUACCAUAGUAUUUAGUUA	0.00284 ± 0.0018
UCCUGGAUCAGCAUGCAUACUAUUUAGUUA	0.00941 ± 0.0023
UCCACAUACAGCUUGCAUAGUAUUUAGUUA	0.0589 ± 0.0096
UCCUCCUACAGCUUGCAUAGAAUUAAGUUA	0.00653 ± 0.0024
UCGACCUUGAGCUUGCAUAGUAUUUAGUAA	0.0295 ± 0.0071
AGGACCUACAGGAUGCAUAGUAUUUAGUAA	0.0141 ± 0.0026
UCCUCCUACAGCUUGCAAAGUAUUUUGUUA	0.0121 ± 0.0023
UCCUGGAUGUCGAACCAUAGUAUUAUCAAA [g7:g15:cont:t1A]	< 0.0001
UCGACCUACAGCUUGCAUUGUAUUUAGAAA	0.0036 ± 0.0022
UCCUCCUACAGCUUGCAUAGUAUUUAGUUU [g2:g26:cont:t1U]	0.0826 ± 0.02
UCCUGGUACAGGUUGCAUAGUAAUUAGUUA	0.0101 ± 0.0023
UCCACCUACAGCUUGCAUAGUAAUUACUUA	0.00816 ± 0.0029
AGGUCCUACAGCUUGCAUAGUAUUUUCAAA	0.00558 ± 0.0037
UCCUGGAUGUGCUUGCAUAGUAUUUACAUA	0.0058 ± 0.0031
UCCACCUACAGCUUGCAAAGUAUUUAGUAA	0.0135 ± 0.0033
